Measurements as given in PubChem BioAssay AID588855 (National Center for Advancing Translational Sciences (NCATS), 2011).
The campaign covered roughly 410,000 compounds. About 5,000 (1.2%) were called active. The inconclusive results got no clear call from the source; some entries with a clear call stand among them for comparison. Calls follow the shape of the dose curve; as a rule, active = well fitted inhibition curve with a large enough effect; inconclusive = small, poorly fitted or top-dose-only effect; inactive = no such curve, though single readings can be large or run the other way. Potencies of inconclusive entries are doubtful fits and often do not repeat.

Assay: qHTS for Inhibitors of TGF-b; also: nearly all actives have a fitted effect of over 65% in size
Conditions: HepG2 CAGA-GFP TGF-b/SMAD3 reporter, GFP fluorescence, 18 h, TGF-beta stimulated, 500 pg/mL final; series mostly up to 46.1 µM
Method in brief: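 HEPG2 CAGA-GFP, 1000 cells/well; 2 h settle, 37 C; cpd via pin tool; TGF-b 500 pg/mL final; 18 h, 37 C; GFP imaging ex488/em500-530; %Activity normalised to -TGF-b and +DMSO controls; CRC fit, curve class.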
Potency is read from the fitted curve at half-maximal effect; tags tell the direction and shape of the fitted curve.

| Compound | Potency |
| --- | --- |
| COc1ccc(CCNC(=O)c2cc3c(s2)-c2ccccc2OC3)cc1OC | inactive |
| NC(=O)C1CCCN(C(=O)CN2C(=O)NC(c3ccccc3)(c3ccccc3)C2=O)C1 (configuration not stated) | inactive |
| COc1ccc(S(=O)(=O)c2c(O)c3ccc(C(=O)NCc4ccccc4)cc3[nH]c2=O)cc1 | inactive |
| COc1ccc(-c2cc(=O)[nH]c3ccccc23)cc1 | inactive |
| O=c1[nH]nc(CNc2ccc(Cl)cc2Cl)c2ccccc12 | inconclusive: 35.5 µM [inhibitor, single point] |
| CC1CC(C)(C)CC2(C1)NC(=O)N(CC(=O)N1CCN(S(=O)(=O)c3cccc(Cl)c3Cl)CC1)C2=O (configuration not stated) | inconclusive: 11.2 µM [inhibitor, partial curve, poor fit] |
| O=C(NC1CCCCC1)c1cccc2c(-c3ccc(F)c(F)c3)coc12 | inactive |
| CCOc1ccc(CNC(=O)CCc2cn(Cc3ccccc3)c3ccccc23)cc1 | inconclusive: 35.5 µM [inhibitor, single point] |
| COc1cc2c(cc1OC)C(c1cccc([N+](=O)[O-])c1)=NCC2 | inconclusive: 3.16 µM [inhibitor, partial curve] |
| COc1ccc(-c2cc(C(F)(F)F)nc(SCC(=O)N3CCCCC3C)n2)cc1OC (configuration not stated) | inactive |
| COc1cccc(-c2sc3ccc(OC)cc3c2-c2ccc(O)cc2)c1 | inconclusive: 12.6 µM [inhibitor, partial curve, poor fit] |
| CC(C)(C)C(=O)CN1C2=NCCN2c2ccccc21 | inconclusive: 4.47 µM [inhibitor, full curve] |
| COC(=O)CNC(c1ccccc1)c1cc(Br)ccc1NC(=O)c1ccccc1 (configuration not stated) | inconclusive: 17.8 µM [inhibitor, partial curve, poor fit] |
| NS(=O)(=O)c1ccc(CCNc2ncnc3c2c(-c2ccccc2)cn3-c2ccc(F)cc2)cc1 | inconclusive: 22.4 µM [inhibitor, single point] |
| CC1(O)N(Cc2ccccc2)C(=O)OC12CCCCC2 (configuration not stated) | inactive |
| CC(C)N(C(=O)Cc1ccccc1[N+](=O)[O-])C(C)C | inconclusive: 31.6 µM [inhibitor, single point] |
| COc1cccc(CNC(=O)CSc2nnc(C)c3c(C)n(-c4ccccc4)nc23)c1OC | inconclusive: 35.5 µM [inhibitor, single point] |
| CCOC(=O)C1CCCN(C(=O)Cn2ncc3c(C)n(Cc4ccccc4F)c(C)c3c2=O)C1 (configuration not stated) | inconclusive: 35.5 µM [inhibitor, single point] |
| COc1cccc(NC(=O)N2CCc3nc(NCc4cccc(Oc5ccccc5)c4)ncc3C2)c1 | inconclusive: 17.8 µM [inhibitor, single point] |
| Cc1cc(C)cc(NC2=C(c3ccccc3)C(=O)c3ccccc32)c1 | inconclusive: 12.6 µM [inhibitor, partial curve, poor fit] |
| Cc1ccc(CC(=O)N2CCC(c3nc4c(nnn4Cc4ccccc4)c(=O)[nH]3)CC2)cc1 | inconclusive: 5.62 µM [inhibitor, partial curve] |
| O=C(CSc1ccc2ccccc2n1)Nc1ccc(N2CCOCC2)cc1 | inconclusive: 35.5 µM [inhibitor, single point] |
| O=C(Nc1ccccc1Cl)c1ccc(C(=O)Nc2ccccc2Cl)cc1 | inconclusive: 0.316 µM [inhibitor, full curve, poor fit] |

| Compound | Potency |
| --- | --- |
| O=C(/C=C/c1ccccc1)c1ccc2ccccc2c1 | inconclusive: 22.4 µM [inhibitor, single point] |
| O=[N+]([O-])c1ccccc1Nc1ccc(O)cc1 | inconclusive: 0.447 µM [inhibitor, partial curve, poor fit] |
| CCN(CC)S(=O)(=O)c1cccc(C(=O)Nc2cc3oc4ccccc4c3cc2OC)c1 | inactive |
| CCNc1nc(NC(C)C)nc(NS(=O)(=O)c2ccc(Cl)cc2)n1 | inactive |
| Cc1nc2c(C(=O)O)cnn2c(C)c1Cc1ccccc1F | inactive |
| CCOC(=O)C1=CCC(c2cccc(Cl)c2)N(S(=O)(=O)c2ccc(C)cc2)C1 (configuration not stated) | inconclusive: 8.91 µM [inhibitor, partial curve, poor fit] |
| CN(C)C(=O)c1cccc(-c2cnc3c(NC=O)cc(-c4ccc(N(C)C)cc4)cn23)c1 | inactive |
| CC1=C(C(N)=O)C(c2ccc(C)cc2)n2nc(SCc3ccccc3F)nc2N1 (configuration not stated) | inconclusive: 0.631 µM [inhibitor, full curve, poor fit] |
| COc1ccccc1N1CCN(C(=O)CSc2nc3ccccc3nc2N2CCCCC2)CC1 | inconclusive: 35.5 µM [inhibitor, single point] |
| Cc1ccc(N(C)S(=O)(=O)c2cccc(C(=O)NNC(=O)c3ccncc3)c2)cc1 | inactive |
| COc1ccccc1C/C(N)=N/OC(=O)COc1ccc2ccccc2c1 | inconclusive: 0.398 µM [inhibitor, full curve, poor fit] |
| CN1CCN(C(=O)c2ccc(F)c(F)c2)CC1 | inactive |
| Cc1ccc(-n2nc(C(=O)O)c3ccccc3c2=O)cc1C | inconclusive: 3.55 µM [inhibitor, single point] |
| Cn1c(=S)c2[nH]c(SCCN3CCCC3)nc2n(C)c1=O | inconclusive: 4.47 µM [inhibitor, full curve] |
| CC(=O)Oc1ccc(N2C(=O)c3cccc4c([N+](=O)[O-])ccc(c34)C2=O)cc1 | inactive |
| O=C(c1ccncc1)c1ccc(N2CCN(C3CC(=O)N(Cc4cccs4)C3=O)CC2)cc1 (configuration not stated) | inconclusive: 35.5 µM [inhibitor, single point] |
| COc1ccc(-c2nnc3n(CCc4ccccc4)c(=O)c4ccccc4n23)cc1OC | inactive |
| O=C(C/C=N/OCc1c(Cl)cccc1Cl)c1ccccc1 | inconclusive: 3.16 µM [inhibitor, single point] |
| CNC(=S)N1CCN(c2nc(-c3ccc(Cl)cc3)cs2)CC1 | inconclusive: 10 µM [inhibitor, single point] |
| CCCn1c(=O)c2c(nc3n2CCN3c2ccc(C)cc2)n(C)c1=O | inactive |
| Cc1ccc2c(c1)N(CC(=O)NC1CCCc3ccccc31)C(=O)CO2 (configuration not stated) | inactive |
| Cc1ccc(NC(=O)c2cc3c(=O)n(Cc4ccco4)ccc3nc2C)cc1C | inconclusive: 20 µM [inhibitor, partial curve, poor fit] |
| CC1=C(C(=O)OC2CCCCC2)C(c2ccccc2Br)NC(=O)N1 (configuration not stated) | inconclusive: 35.5 µM [inhibitor, single point] |

| Compound | Potency |
| --- | --- |
| CC1CN(C(=S)NC(=O)c2ccco2)CC(C)O1 (configuration not stated) | inconclusive: 0.708 µM [inhibitor, full curve, poor fit] |
| COc1cc2c(cc1NC(=O)COC(=O)[C@@H](NS(=O)(=O)c1cccc(Cl)c1)C(C)C)oc1ccccc12 | inconclusive: 35.5 µM [inhibitor, single point] |
| Cc1ccc(Nc2nc3ccc(Cl)cc3n3cnnc23)cc1F | inconclusive: 17.8 µM [inhibitor, single point] |
| CCOc1ncccc1C(=O)NNC(=O)CSc1ccc(Cl)cc1 | inactive |
| COc1ccc(NC(=O)CCCC(=O)NCCc2ccc(OC)c(OC)c2)cc1 | inactive |
| Cc1ccc(NC(=S)NNC(=O)c2nnn(-c3ccccc3)c2C)cc1 | inactive |
| O=S(=O)(Nc1cccc2cccnc12)c1ccc(S(=O)(=O)N2CCCC2)cc1 | inconclusive: 14.1 µM [inhibitor, partial curve, poor fit] |
| CCOc1ccc(S(=O)(=O)Nc2ccc(C(=O)N3CC(C)OC(C)C3)cc2)cc1 (configuration not stated) | inconclusive: 14.1 µM [inhibitor, single point] |
| CC1CCCC(C)N1c1ccc(S(=O)(=O)N2CCOCC2)cc1Cl (configuration not stated) | inconclusive: 35.5 µM [inhibitor, single point] |
| CC1CCC(NC(=O)C2(C)CCC(=O)N2Cc2cccnc2)CC1 (configuration not stated) | inactive |
| CCCCC[C@@H]1C=C(C(=O)O)[C@H](c2ccc(Cl)c(Cl)c2)N1S(=O)(=O)c1ccc(C)cc1 | inconclusive: 35.5 µM [inhibitor, partial curve, poor fit] |
| CN1c2ccccc2C(O)=C(C(=S)Nc2ccc(Cl)cc2)S1(=O)=O | inactive |
| O=C(c1ccc(Br)c([N+](=O)[O-])c1)N1CCN(Cc2ccccc2)CC1 | inconclusive: 35.5 µM [inhibitor, single point] |
| CCOc1ccc(CCNC(=O)c2cccc3c2C(=O)N(CCOC)C3)cc1OCC | inconclusive: 35.5 µM [inhibitor, single point] |
| Cc1ccc(NC(=O)CN2C(=O)CCc3cc(S(=O)(=O)N4CCCCC4)ccc32)cc1C | inconclusive: 0.112 µM [inhibitor, full curve, poor fit] |
| Cc1cc(C)cc(-n2c(C)nc3cc(C(=O)NCc4ccccc4Cl)ccc32)c1 | inconclusive: 35.5 µM [inhibitor, single point] |
| CCCCN(CCCC)CC(O)COc1ccc(Br)cc1 (configuration not stated) | inconclusive: 39.8 µM [inhibitor, partial curve, poor fit] |
| [O-]/C(=C(\C(=S)Nc1cccc2ccccc12)[n+]1ccccc1)c1cccs1 | inconclusive: 22.4 µM [inhibitor, single point] |
| Cn1c(NC(=O)c2ccc(F)cc2)c(-c2cccs2)c(=O)c2ccccc21 | inactive |
| CCn1c(N2CCN(S(=O)(=O)c3ccc(Cl)cc3)CC2)nc2ccccc21 | inconclusive: 15.8 µM [inhibitor, partial curve, poor fit] |
| Cc1ccc(C)c(-c2nnc(NC(=O)c3ccc4c(c3)OCCO4)o2)c1 | inconclusive: 35.5 µM [inhibitor, single point] |
